Test results published in PMC4336329 (PLoS ONE, 2015).
Out of some 310,000 compounds screened, about 14,000 (4.5%) showed an effect of 50% or more. The effect is printed as a negative number. The list shows a part of the results.

The compounds below were run against human ether-à-go-go-related gene (hERG) potassium channel (human, UniProt Q12809) (assay: primary screen, population patch clamp on CHO cells stably expressing hERG).
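Further: peak tail current of the secondary pulse compared with the same well before compound.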

human ether-à-go-go-related gene (hERG) potassium channel, sequence (Q12809 whole entry, looked up): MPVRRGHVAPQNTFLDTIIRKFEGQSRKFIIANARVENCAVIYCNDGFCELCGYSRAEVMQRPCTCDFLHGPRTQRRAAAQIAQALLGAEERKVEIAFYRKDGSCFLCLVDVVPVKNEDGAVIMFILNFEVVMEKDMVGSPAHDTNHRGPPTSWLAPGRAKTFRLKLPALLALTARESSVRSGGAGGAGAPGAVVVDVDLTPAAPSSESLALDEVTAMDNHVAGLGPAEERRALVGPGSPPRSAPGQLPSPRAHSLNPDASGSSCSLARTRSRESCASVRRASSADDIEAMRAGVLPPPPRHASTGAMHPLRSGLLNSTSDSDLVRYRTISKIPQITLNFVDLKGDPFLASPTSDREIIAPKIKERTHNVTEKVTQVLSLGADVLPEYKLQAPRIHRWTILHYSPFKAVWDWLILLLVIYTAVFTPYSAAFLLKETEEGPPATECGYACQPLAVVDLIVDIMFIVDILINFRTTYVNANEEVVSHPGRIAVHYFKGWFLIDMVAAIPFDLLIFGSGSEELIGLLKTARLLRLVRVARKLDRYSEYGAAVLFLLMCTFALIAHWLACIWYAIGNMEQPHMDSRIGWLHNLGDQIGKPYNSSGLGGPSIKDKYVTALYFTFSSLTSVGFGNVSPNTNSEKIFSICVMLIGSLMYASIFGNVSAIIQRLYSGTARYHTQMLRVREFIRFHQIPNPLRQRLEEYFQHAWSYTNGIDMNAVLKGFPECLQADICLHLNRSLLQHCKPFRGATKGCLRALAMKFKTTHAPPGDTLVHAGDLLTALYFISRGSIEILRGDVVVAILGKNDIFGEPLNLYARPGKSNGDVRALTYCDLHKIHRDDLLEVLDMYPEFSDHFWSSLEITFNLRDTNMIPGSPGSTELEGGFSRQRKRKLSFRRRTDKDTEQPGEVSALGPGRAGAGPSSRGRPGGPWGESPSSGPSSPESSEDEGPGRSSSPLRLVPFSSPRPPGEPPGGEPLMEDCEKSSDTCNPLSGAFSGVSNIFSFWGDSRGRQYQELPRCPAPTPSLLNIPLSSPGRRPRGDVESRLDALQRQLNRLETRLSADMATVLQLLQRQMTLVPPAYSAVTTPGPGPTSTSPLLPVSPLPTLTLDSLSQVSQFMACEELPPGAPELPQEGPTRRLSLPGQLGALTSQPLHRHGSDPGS

Compound	hERG current change (%, negative = inhibition) at 10uM [%]
Cc1ccc(NC(=S)Nc2ccc(Cl)c(Cl)c2)c(OC(F)F)c1	12.4
CC12CN3CCN(C1)CC(C)(C3)C2=NN	15.6
COc1ccc(C2C(C(N)=O)=C(C)Nc3nc(-c4ccccc4)nn32)cc1OC (stereo not shown)	2.91
CC(=O)Nc1ccc(NC(=O)CSc2ncnc3c2cnn3Cc2ccccc2)cc1	-2.36
O=C(OCc1cccc(Cl)c1)c1cc([N+](=O)[O-])ccc1N1CCOCC1	-38.7
C=CCNC(=O)C1CC(=O)N(c2ccc(OCC(=O)Nc3ccccc3)cc2)C1 (stereo not shown)	-15.8
Cc1cc(S(=O)(=O)NCc2ccco2)c(C)cc1Cl	14.1
CC(CCC(=O)Nc1nncs1)C(=O)O (stereo not shown)	-6.61
CN(c1ccccc1)S(=O)(=O)c1ccc2c(c1)oc(=O)n2C	13.6
O=C(COc1cccc2c1CCN(Cc1ccc(Cl)cc1)C2=O)N1CCOCC1	-60.2
COCCN(C(=O)COC(=O)CCc1nc2ccccc2s1)c1c(N)n(Cc2ccccc2)c(=O)[nH]c1=O	8.28
COc1cccc([C@@]2(O)CCCC[C@@H]2CN(C)C)c1.Cl	15.8
O=C(NCc1ccc(F)cc1)C(C(=O)NCc1ccc(F)cc1)c1ncc(C(F)(F)F)cc1Cl	1.56
O=C1NC(c2ccc(Cl)c([N+](=O)[O-])c2)Nc2ccccc21 (stereo not shown)	20
Cc1nn(C)cc1CN(C)Cc1ccc(OCC(O)CN2CCCCC2)cc1 (stereo not shown)	-7.47
COc1ccc(Nc2nc3ccc(OC)cc3s2)cc1	13.4
O=C(CCc1n[nH]c(=O)[nH]c1=O)N1CCCCC1	9.5
COc1ccc2oc(=O)c(C(=O)OCc3ccccc3)cc2c1	13.4
CS(=O)(=O)N(CC(=O)NCCSCc1cccc(Cl)c1)c1ccc2c(c1)OCO2	-15.5
Cc1ccc(N(CC(=O)NCCSc2ccccn2)S(C)(=O)=O)cc1	0.263
CCc1ccc(C(c2c(C)nn(-c3ccccc3)c2N)c2c(C)nn(-c3ccccc3)c2N)cc1	-41.2
CNS(=O)(=O)c1cccc(C(=O)OCC(=O)NC2CCCC2)c1	20.7

Compound	hERG current change (%, negative = inhibition) at 10uM [%]
Brc1ccc(NCc2cccc3ccccc23)nc1	9.86
CC1CC(Nc2ccccc2)c2ccccc2N1C(=O)c1ccccc1F (stereo not shown)	18.8
Cc1cc(OCC(=O)Nc2ncn[nH]2)ccc1Cl	3.94
O=S(=O)(NCc1ccccc1)c1ccc(Br)c2nsnc12	-14.1
COc1ccc2c(C)cc(SCC(=O)Nc3ccc(Cl)cn3)nc2c1	4.24
O=C(O)c1ccccc1C(=O)Nc1ccc(-n2nc(C(F)(F)F)cc2C(F)(F)F)cc1	12.8
O=C(CNCc1ccc(F)cc1)Nc1ccc(S(=O)(=O)N2CCOCC2)cc1	-14.8
C/C(=C\COc1ccc2ccc(=O)oc2c1)CC[C@@H](O)C(C)(C)O	21.8
Cc1cc(C)n(S(=O)(=O)c2ccccc2)n1	9.53
CCOc1ccc(C2Oc3nc(SC)nnc3-c3ccccc3N2C(C)=O)cc1OC (stereo not shown)	9.64
C=CCn1c(=O)c2ccccc2n2c(SCc3cc(=O)n4ccsc4n3)nnc12	-3.96
O=C(Nc1ccccc1)N(Cc1ccc2c(c1)OCO2)Cc1nc2ccccc2c(=O)[nH]1	-16.3
OC(COc1ccc(OCc2ccccc2)cc1)CN1CCOCC1 (stereo not shown)	-17
CSCCC(NS(=O)(=O)c1ccccc1)C(=O)OCc1nc2ccsc2c(=O)[nH]1 (stereo not shown)	2.87
COc1cc(NC(=O)Cn2cnc(S(=O)(=O)N3CCOCC3)c2)cc(OC)c1OC	10.5
CCOC(=O)c1c(C)[nH]c(C)c1C(=O)CSc1nc2ccccc2c(=O)n1-c1ccc(Cl)cc1	3.43
Cc1noc(NS(=O)(=O)c2ccc(NC(=O)CCC3CCCCC3)cc2)c1C	5.59
O=[N+]([O-])c1cc(Cl)ccc1N1CCN(c2ccccc2O)CC1	4.6
CCc1ccc(NC(=O)C2CCN(S(=O)(=O)c3cnc[nH]3)CC2)cc1	9.27
CC(NC(=O)COC(=O)c1cc(Cl)ccc1O)C1CC2CCC1C2 (stereo not shown)	12
COc1ccc(N2CCN(CCCn3c(=S)[nH]c4ccccc4c3=O)CC2)cc1	-36.7
